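Cultured in 96-well plates, cells were exposed to test compound for 48 hours across five concentrations. Abbreviation: GI50, concentration required for 50% inhibition of growth.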 The source holds more than one record for some entries. The other results are left out here. There may be further records. For part of these data: Records of one sample usually come from different ranges of test concentrations, which the source does not state; a value can be the end of its range. For part of these data: Results that share an entry are repeats across runs, samples, wells, individuals or studies. Brackets tell where a record comes from. A, B and so on number the origins entry by entry.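 TGI is the concentration that stops growth completely.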 Where a SMILES comes first, the peptide text is derived from it. [ ]: non-standard residue; d: D form. The star is where a group is joined. Dolaproine = CO[C@@H]([C@@H]1CCCN1)[C@@H](C)C(=O)O; Dil = CC[C@H](C)[C@H](NC)[C@@H](CC(=O)O)OC; X2 = C[C@@H](N*)[C@@H](O)c1ccccc1; NMeV = CN[C@H](C(=O)O)C(C)C
Tests used:
Experiment in all cases: inhibition of tumour cell growth, NCI panel, 48 h
[1] = system: UO-31 renal
[2] = system: UACC-257 melanoma
[3] = system: SF-295 CNS
[4] = system: SK-MEL-2 melanoma
[5] = system: HL-60(TB) leukemia
[6] = system: HS 578T breast
[7] = system: NCI/ADR-RES ovarian
[8] = system: HOP-92 NSCLC
[9] = system: MALME-3M melanoma
[10] = system: OVCAR-4 ovarian
[11] = system: IGROV1 ovarian
[12] = system: SNB-75 CNS
[13] = system: SF-268 CNS
[14] = system: SN12C renal
[15] = system: SK-OV-3 ovarian
[16] = system: HCT-15 colon
[17] = system: SF-539 CNS
[18] = system: CCRF-CEM leukemia
[19] = system: 786-0 renal
[20] = system: TK-10 renal
[21] = system: NCI-H460 lung
[22] = system: T-47D breast
[23] = system: OVCAR-3 ovarian
[24] = system: NCI-H226 lung
[25] = system: OVCAR-5 ovarian
[26] = system: CAKI-1 renal
[27] = system: SW-620 colon
[28] = system: A498 renal
[29] = system: DU-145 prostate
[30] = system: UACC-62 melanoma

With COc1cc(C2C3=C(COC3=O)N(CCO)c3cc4c(cc32)OCO4)cc(OC)c1OC (stereo unspecified) the GI50 [1] was 818 nM and > 16.8 µM, the GI50 [2] was 391 nM and 9.35 µM and the TGI [3] was 12.5 µM and 650 nM. For the same compound, the TGI [4] was 1.04 µM and > 16.8 µM, the TGI [5] was 921 nM and 12.1 µM and the TGI [6] was 12.5 µM and 1.06 µM.

For CC1CCCc2sc3nc(NNC(=O)c4cnccn4)n(-c4ccccc4)c(=O)c3c21 (stereo unspecified), the TGI [7] was > 27.7 µM [sample A, mean of 2 tests] and 2.27 µM [sample B, mean of 2 tests].

For CC[C@H](C)[C@@H]([C@@H](CC(=O)N1CCC[C@H]1[C@H](OC)[C@@H](C)C(=O)N[C@H](C)[C@@H](O)c1ccccc1)OC)N(C)C(=O)[C@@H](NC(=O)[C@@H](NC)C(C)C)C(C)C (H-[NMeV]V[Dil][Dolaproine]-X2), the GI50 [2] was > 50 µM [sample A, mean of 2 tests] and 107 nM [sample B, 1 test], the GI50 [8] was 161 nM [sample A, mean of 2 tests] and > 100 µM [sample B, 1 test] and the GI50 [9] was 199 nM [sample A, mean of 2 tests] and < 10 nM [sample B, mean of 2 tests]. The GI50 [10] was 9.28 nM [sample A, mean of 2 tests] and > 78.1 µM [sample B, mean of 2 tests].

For COc1cc2c(c(OC)c1OC)-c1ccc(SC)c(=O)cc1[C@@H](NCc1ccccc1[N+](=O)[O-])CC2, the TGI [11] was 46 nM and > 100 µM, the TGI [12] was 7.37 nM and > 100 µM and the TGI [13] was 81.4 nM and 27.3 µM. The TGI [14] was 84.1 nM and 77.4 µM, the TGI [5] was 10.5 nM and 16.5 µM and the TGI [15] was 41.6 nM and > 100 µM.

COc1cccc2c1C(=O)c1c(O)c3c(c(O)c1C2=O)C[C@@](O)(C(=O)CO)C[C@@H]3OC1CC2C(OCN3CN2COC2C(C)OC(O[C@H]4C[C@](O)(C(=O)CO)Cc5c(O)c6c(c(O)c54)C(=O)c4c(OC)cccc4C6=O)CC23)C(C)O1 (stereo partly specified) was tested, and the TGI [16] was 25 µM and 633 nM, the TGI [11] was 644 nM, 6.45 µM, 1.2 µM and the TGI [17] was 343 nM and 15.4 nM. The TGI [18] was 803 nM and 12.7 nM, the TGI [19] was 476 nM and 45.3 nM and the TGI [20] was 192 nM and 25 µM. For the same compound, the TGI [13] was 506 nM, 75.2 nM, > 100 µM, the TGI [21] was 67.1 nM, 3.22 µM, 1.05 µM and the TGI [22] was 123 nM, 25 µM, 2.84 µM. For the same compound, the TGI [23] was 826 nM, 25 µM, 6.45 µM, the TGI [24] was 639 nM, 164 nM, 48.7 nM and the TGI [25] was 740 nM, 348 nM, 71.3 nM. For the same compound, the TGI [26] was 25 µM and 1.31 µM, the TGI [27] was 3.48 µM and > 100 µM and the TGI [28] was 241 nM, 12.9 nM, 34.1 nM. The TGI [5] was 205 nM and 9.09 nM, the TGI [6] was 437 nM, 25 µM, > 100 µM and the TGI [29] was 381 nM, 2.92 µM, 13.6 µM. For the same compound, the TGI [30] was 170 nM and 12.2 nM.

Source: PubChem BioAssay (NCI)
